Data published in PubChem BioAssay (NCI).
Where “and” joins values, the source holds several entries; their conditions need not be identical. Equal values may be shown once.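 How tested: cells in 96-well plates exposed to compound for 48 hours at five concentrations. The concentration for 50% growth inhibition is given as GI50. TGI denotes the concentration required for complete inhibition of growth.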

Test system: NCI-H322M lung
Test: NCI tumour cell line growth inhibition, 48 h

Row | Compound | TGI | GI50
1 | O=C(CC(O)(C(F)(F)F)C(F)(F)F)C(CCCl)C(O)(C(F)(F)F)C(F)(F)F (stereo not drawn) | > 100 µM | –
2 | O=NC1c2cccc3cccc(c23)C1N=O (stereo not drawn) | 27.8 µM | –
3 | CC(C)(CO)CNc1nc(N)nc(Cl)c1N | > 100 µM | –
4 | COc1ccc(C(O)c2ccc3c(c2)OCO3)cc1 (stereo not drawn) | > 100 µM | –
5 | CCOC(=O)C1N(S(=O)(=O)c2ccc(C)cc2)CCC12c1ccccc1N(C(C)=O)C2C(/C=C/C(=O)OC)=C/C(=O)OC (stereo not drawn) | > 100 µM | –
6 | CC(C)C[C@H](NC(=O)[C@H](CCc1ccccc1)NC(=O)CN1CCOCC1)C(=O)N[C@@H](Cc1ccccc1)C(=O)N[C@@H](CC(C)C)C(=O)[C@@]1(C)CO1 | 0.48 µM | 0.0664 µM
7 | Oc1ccc2oc3ncc(Cl)c(-c4ccccc4)c3c2c1 | > 100 µM | > 100 µM
8 | O=C(O)/C=C(/CC(=O)O)C(=O)O | 64.8 µM | –
9 | N/C(=N\NS(=O)(=O)c1ccccc1)Oc1ccc(Cl)cc1 | > 100 µM | –
10 | CC(C)CCC[C@@H](C)[C@H]1CC[C@H]2[C@@H]3CC=C4C[C@@H](OC(=O)c5cccc6c(=O)c7ccccc7[nH]c56)CC[C@]4(C)[C@H]3CC[C@]12C | > 75 µM | –
11 | O=C1c2ccccc2C(=O)c2c1ccc(C(Br)Br)c2[N+](=O)[O-] | 20.9 µM | 8.52 µM
12 | Cn1cnc([N+](=O)[O-])c1Sc1ccccn1 | > 100 µM | –
13 | O=C(O)c1c(O)c2cc(Br)ccc2oc1=O | > 100 µM | –
14 | COc1ccc(OC)c(-c2nc3sccn3c2/C=C2/C(=O)Nc3ccc(Cl)cc32)c1 | > 100 µM | 39.5 µM
15 | COc1ccc(/C=C/c2c(C(=O)/C=C/c3ccc(Cl)cc3)c(C)nc3ccccc23)cc1 | 3.06 µM | 1.55 µM
16 | CC(=O)NS(=O)(=O)c1ccc(NC(=O)COC(=O)c2cccc3c(=O)c4ccccc4[nH]c23)cc1 | > 100 µM | –
17 | C#CCN1C(=O)/C(=c2\sc3n(c2=O)C2C(NN=3)N(CC)C(=O)N2CC)c2ccccc21 (stereo not drawn) | > 100 µM | 3.83 µM
18 | CN(C)CCOC(=O)COc1ccc(Cl)cc1 | > 100 µM | –
19 | Cc1cccc(NC(=O)C(=O)C2C(=O)NC(=O)NC2=O)c1C | > 100 µM | –
20 | C[C@]12O[C@H](C[C@]1(O)CO)n1c3ccccc3c3c4c(c5c6ccccc6n2c5c31)CNC4=O | 6.24 µM and 6.62 µM | 1.29 µM and 1.37 µM
21 | c1ccc(CCN2CCCCCC2)nc1 | > 100 µM | –
22 | C=C(CN1CCN(c2ccccc2OC)CC1)c1ccc(C(=O)Nc2ccccc2N)cc1 | 20.3 µM | 5.66 µM
23 | NC(Cc1cc(I)c(O)c(I)c1)C(=O)O (stereo not drawn) | > 500 µM | –

Row | Compound | TGI | GI50
24 | Cc1csc2c1C(=O)c1ccsc1C2=O | 4.68 µM | –
25 | CN(C)C[C@H]1CC[C@@H](CN(C)C)C1=O | > 50 µM | –
26 | C=C(C=O)C1CC(=O)C(C(=O)OC)[C@@H]2O[C@@](C)(CC2=O)C[C@@H]2OC(=O)[C@]3(O[C@@H]23)[C@@H](C(=O)OC)C1 (stereo partly drawn) | 58.9 µM | 24.1 µM
27 | C=C1CCC2C3(C)COC(c4ccc(NC(C)=O)cc4)OC3CCC2(C)C1C/C=C1/C(=O)OCC1O (stereo not drawn) | > 100 µM | > 100 µM
28 | COc1ccc(-c2ccc3c(NC(=O)C4CC4)n[nH]c3n2)cc1 | > 25 µM | > 25 µM
29 | Cc1c2c3cc(O)ccc3nc-2n(C)c2ccccc12 | 4.5 µM | –
30 | O=c1[nH]cc(CS(=O)(=O)Cc2c[nH]c(=O)[nH]c2=O)c(=O)[nH]1 | > 100 µM | –
31 | COc1ccc(-c2oc(=O)ccc2C#Cc2cc(OC)c(OC)c(OC)c2)cc1O | > 100 µM | 66.5 µM
32 | C=CN1C(=O)OC(c2ccccc2)C1c1ccccc1 (stereo not drawn) | > 100 µM | > 100 µM
33 | CC(=O)/C=C/C=C(\C)CC/C=C(\C)CC(C)C | > 100 µM | –
34 | NCCCCCS(=O)(=O)O | > 100 µM | –
35 | CCC1C(C)c2c([nH]c3ccccc23)C2C(=O)N(c3ccccc3)C(=O)C21 (stereo not drawn) | 54.4 µM | –
36 | CCN1CCN(c2nc(NNC(=O)Cc3ccccc3)nc(N3CCN(C(c4ccccc4)c4ccccc4)CC3)n2)CC1 | 15.5 µM | 3.46 µM
37 | CC(=O)OCC1OC(OC2C(COC(C)=O)OC(OCCC[S-])C(OC(C)=O)C2OC(C)=O)C(OC(C)=O)C(OC(C)=O)C1OC(C)=O.[Au+].c1ccc(CN2[CH-]N(Cc3ccccc3)C(c3ccccc3)=C2c2ccccc2)cc1 (stereo not drawn) | 17 µM | 3.79 µM
38 | COc1cc2cc(C(=O)N3CC(CCl)c4c3cc(N)c3ccccc43)[nH]c2cc1OCCN(C)C (stereo not drawn) | 0.0166 µM | –
39 | Cl.[Pt].[c-]1ccccc1-c1ccccn1.c1ccc(P(c2ccccc2)C([PH+](c2ccccc2)c2ccccc2)[PH+](c2ccccc2)c2ccccc2)cc1 | 21.1 µM | 2.24 µM
40 | CCN(CC)CCN1C(=O)c2c(c(C)c3c(oc4cc(O)ccc43)c2C)C1=O | 3.03 µM | 1.64 µM
41 | COc1ccc2cccc(C(=O)c3ccc(C)c4c3CCC4)c2c1 | > 100 µM | –
42 | Cc1ccc2nc3c(C)c(Cl)c(=O)cc-3sc2c1 | > 100 µM | –
43 | COC(=O)C(=O)C1(CCC(C)=O)c2ccccc2-c2ccccc21 | > 100 µM | –
44 | CCOC(=O)c1ccc(C(=O)C(C(C)=O)C(=O)OC(C)(C)C)n1C (stereo not drawn) | > 100 µM | –
45 | Nc1[nH]c(=O)ncc1F | > 100 µM | –
46 | O=C(N/N=C(/c1nc2ccc(Cl)cc2[nH]c1=O)C(O)c1ccc(Cl)cc1Cl)c1ccncc1 (stereo not drawn) | > 100 µM | –

Row | Compound | TGI | GI50
47 | COc1cc(C2C3=C(CCC3=O)Oc3cc4c(cc32)OCO4)cc(OC)c1OC (stereo not drawn) | 39.8 µM | –
48 | CCOC1OCCCC1Br (stereo not drawn) | > 100 µM | –
49 | COP(=O)(OC)C(N)CCSC (stereo not drawn) | > 100 µM | –
50 | CC(C)(C)N=C1CC(C)(C)c2ccccc2C(=Nc2ccccc2)S1 | > 100 µM | –
51 | COC(=O)C1=C(OC)c2cc3c(cc2C(c2cc(OC)c(OC)c(OC)c2)C1C(=O)OC)OCO3 (stereo not drawn) | > 100 µM | –
52 | C/C(=C\c1ccc(Cl)cc1)C(C)(C)C(=O)O | > 100 µM | –
53 | O=C1NC(=S)N/C1=C/c1ccccc1O | > 100 µM | –
54 | COc1ccc2c(c1)CCC1C2CC[C@@]2(C)C1CC[C@@]2(O)CNC(=O)/C=C/c1ccc(O)c(OC)c1 (stereo partly drawn) | > 100 µM | 13.3 µM
55 | CCOc1ccc2[nH]c3c(C)c4cc[n+](C)cc4c(C)c3c2c1 | 93.6 µM and > 100 µM | 1.48 µM and 3.48 µM
56 | OC1CCCC1C(O)(C(F)(F)F)C(F)(F)F (stereo not drawn) | > 100 µM | –
57 | S=c1nc(-c2ccccc2)oc(=NC2CCCCC2)n1C1CCCCC1 | 24.6 µM | 4.59 µM
58 | CCOC(=O)c1ccc2nc(NC(=O)COC(=O)CSc3nc(C)cc(C)n3)sc2c1 | > 100 µM | –
59 | O=C(/C=C/c1ccc(C(F)(F)F)cc1)c1ccc(Nc2nc(NCCO)nc(NCCO)n2)cc1 | 11.3 µM | 2.33 µM
60 | CCCCCc1cc2c(cc1O)CC[C@@H]1[C@@H]2CC[C@]2(C)[C@@H](O)CC[C@@H]12 | 26.8 µM | –
61 | CC[C@]12C=CCN3CCC4(c5cc(N=Nc6ccccc6)c(OC)cc5N(C)[C@H]4[C@@](O)(C(=O)OC)[C@@H]1OC(C)=O)[C@@H]32 (stereo partly drawn) | 35.9 µM | –
62 | CC1(C)COC(c2cccc(C3=NC(C)(C)CO3)c2Br)=N1 | > 100 µM | –
63 | Cn1c2ccccc2c(=Nc2ccccc2)c2c3ccccc3[nH]c21 | 4.02 µM | 1.98 µM
64 | CC1(C)CCC[C@]23C(=O)O[C@](O)(C(=O)C4=C[C@@](C)(/C=C/CCCc5ccc6ccc7cccc8ccc5c6c78)CC[C@@]42O)[C@@H]13 | 0.489 µM | 0.212 µM
65 | c1ccc2c(CNCCCCCCNCc3cccc4ccccc34)cccc2c1 | 10.5 µM | –
66 | COC(=O)c1ccc(-c2nc(C#N)c(N)o2)cc1 | > 100 µM | –
67 | Cc1c[nH]c2c1C13CC1CN(C(=O)c1cc4cc(NC(=O)c5cc6ccccc6o5)ccc4[nH]1)C3=CC2=O (stereo not drawn) | < 0.001 µM | > 1.17 ng/mL
68 | Cn1c(=O)c2c(-c3ccccc3)onc2n(C)c1=O | > 100 µM | –
69 | O=C(N/N=C\c1cccc2ccccc12)Nc1ccc([N+](=O)[O-])cc1 | > 100 µM | –
